Source: the RNAGym collection of RNA variant scans (doi:10.7554/elife.90254)
The source gives no read counts; variants with many changes may rest on few reads.

B1: LINE1-mini (parent)
chain: GGCAGAGCUCAACACAGCGUGGCAAAGUGGCUGUGGCUAGACUGCC

Variants of: B1
Assay: self-cleavage, relative activity (ratio to wild type); higher = more cleavage; in vitro, sequencing; the parent is a self-cleaving ribozyme

| Variant | self-cleavage |
| --- | --- |
| GGCAGAGCUCAACACAGGGGGGAAAAGUGGCUGUGGCCAGACUUCC [C18G U20G C23A U38C G44U] | 0 |
| GGCAGCGCGCAACACAGCGUGCCAAAGUGGCUGUGGCUAGACUGCC [A6C U9G G22C] | 0.02 |
| GGCAGAGCUCAACACAGCGUUGGAAAGUCGCUGUGGCUAGACUGCC [G21U C23G G29C] | 0.55 |
| GGCAGAGCUCAACACAGCGUGGAAAAGUGGCUGUGGCUAGACUCAC [C23A G44C C45A] | 0.07 |
| GUCAGAGCUCAACACAGCUUGGCAAAGUGGCUGUGGCUAGACUACC [G2U G19U G44A] | 0.13 |
| GGCAGAGUUCAACACCCCCUGGCAAAGUGGCUUUGGCUAGACUGCC [C8U A16C G17C G19C G33U] | 0.03 |
| GGCACAGGUCCAAACCGCGUGGCAAAGUGGCUGUGGCUAGACUGCA [G5C C8G A11C C13A A16C C46A] | 0.03 |
| GGCAGAGCUCAACACAGCGUGGCAUAGUGGCUGUGGCCAGACUGGC [A25U U38C C45G] | 0.41 |
| GGCAGAGCUAAACAGAGCGUGGCAAAGUGGCUGUGACUAGACUGCC [C10A C15G G36A] | 0 |
| GGCUGAGCUCAAAACAGCGUAGCAAAGUGGCUGUUGUUAGACUGCC [A4U C13A G21A G35U C37U] | 0.24 |
| GGUAUAGCUCAACACAGCGUGGCAAAGUGGCUGUGAGUAGUCUGCC [C3U G5U G36A C37G A41U] | 0.12 |
| GGCAUAGCUCAACACAGCGUGGCAAAGUGGCUGGGGCUGGAGUUCC [G5U U34G A39G C42G G44U] | 0.02 |
| GGCAGAGCUCCACACAGCGGGGCAAAGAGGAUGUGGCUAGACCGCC [A11C U20G U28A C31A U43C] | 0.01 |
| GGCAGAGCUCAACAAAGCGUGGCAAAGUGGCUGUGGCUGGAUUGCC [C15A A39G C42U] | 0.02 |
| GGCAGAGCUCAACACAGCGUGGCAAUGUGGCUGUGGCUAGCCGGCC [A26U A41C U43G] | 0.03 |
| GGCAAAACUCAAGACAGCGUGGCAAAGUGGCUGUGGCUAGACUGCC [G5A G7A C13G] | 0.07 |
| GGCAGAGCUCAACACCUCGUGGCAAAUUGGCUGUGGCUUGACUGCC [A16C G17U G27U A39U] | 0.13 |
| GCCAGAGCACCACACAGAGUGGCAAAGUAGCUGUUGCUAGACUCCC [G2C U9A A11C C18A G29A G35U G44C] | 0.01 |
| GGCAGGUAGCAACAAAGCGUGGCAAACUGGCUGUGGCUAGACUGCC [A6G G7U C8A U9G C15A G27C] | 0.02 |

| Variant | self-cleavage |
| --- | --- |
| GGCAAAGCUCAACACAGCGUGGCGAAGUGUCUGUGGCUAGACUGCC [G5A A24G G30U] | 0.08 |
| CGCAGAGCUCAACACAGCGUGGCAAUGUGGCUGUCGCUAGACUGCC [G1C A26U G35C] | 0.01 |
| GGCAGGGCUCAACACAGGGUGGCAAAGUGGCUAUAGCUAGACUGCC [A6G C18G G33A G35A] | 0.04 |
| GGAAUAGCUCAACACAGCGUGGCAAGGUGGCUGUGGCUAGACUUCU [C3A G5U A26G G44U C46U] | 0.13 |
| GGCAGCGCUCAACACAGCGUGGCAGAGUGACUGUGGCUAGACUGAC [A6C A25G G30A C45A] | 0.04 |
| GGCAGAGCUCAACACACCGUGGUGAAGUGGCUGUGGCUAGACUGCG [G17C C23U A24G C46G] | 0.05 |
| GGCAGACCUCAACCCAGAUUGGCAAAGUGGCUGUGGCUAGACUGCC [G7C A14C C18A G19U] | 0.08 |
| GGCAGAGCUCAACACAGCGUGACAAAGUGGAUGUGGAUAGACUGCC [G22A C31A C37A] | 0.03 |
| GGCAGAGUUCAACCCAGCGUGGCAAAGUGGCUGUGGCUAGGCUGCC [C8U A14C A41G] | 0.1 |
| GGCAGAGCUCUACACAGCUUGGCAAGAUUGCUGUGGCUAGACUGCC [A11U G19U A26G G27A G29U] | 0.05 |
| GGCGGAGCUCAACACAGCGUGGCAAAAUGGCUGUGGCUAGACUGUU [A4G G27A C45U C46U] | 0.31 |
| GGCAGAGCUCAACACAGCGUGGCAAAGUGGCUGCGGGUAUACUGCC [U34C C37G G40U] | 0.16 |
| GGCAGAGCUCCACACAGCGUGGCAGAGUGACUGUGGAUAGACUGCC [A11C A25G G30A C37A] | 0.02 |
| GGCUGAGCCCGACACAGCGCGGCAAAGUGGCUAUGGCUAGACUGCG [A4U U9C A11G U20C G33A C46G] | 0.01 |
| GGCAGAGCUCACCACAGUGUGGCAAAGUGGCUGUGGCUAAACUGCC [A12C C18U G40A] | 0.01 |
| GGCAGACGUCAAGACAGCGUGGCAAAGUGGCUGUGGCUUGACUGCC [G7C C8G C13G A39U] | 0.05 |
| GGCAGAGCUCAAAACAGCGUGGCAAAGUGGCUUUGGCUAUACUGCC [C13A G33U G40U] | 0.19 |
| GGCAGAGCACAACACAGGGUGGCAAAGUGGGUGAGGCUAGACUGCC [U9A C18G C31G U34A] | 0.07 |
| GGCAAAGCUCAACACAGCGUAGCAAAGUGGCUCUGGCUAAACUGCC [G5A G21A G33C G40A] | 0.11 |

| Variant | self-cleavage |
| --- | --- |
| GGCUGAGCUCACCACAGCGUGGCAAAGUGGGUGUGGCUAGACUGCC [A4U A12C C31G] | 0.04 |
| GGCAGAGCUCAACACAGCAUGCCAAAGUGGAUGUGGCUGGAGUGCC [G19A G22C C31A A39G C42G] | 0.02 |
| GGUCGAGCUCAACACAGCAUGGCAAAGUGGCUGUGGUUAGACUGCC [C3U A4C G19A C37U] | 0.04 |
| GGCGGAGCUCAACACAGCGUGACAAAGUGGCAGUGGCUAGAAUGCC [A4G G22A U32A C42A] | 0.08 |
| GGCAUAGCUCAACACAGCGUGGCAAAGUGGCUUUGGCUAAACUGCC [G5U G33U G40A] | 0.01 |
| GGGAGAGCGCAACACAGCGUGGCAAACUGGCUGUGGGAUGACUGCC [C3G U9G G27C C37G U38A A39U] | 0.1 |
| GACAGAGCUUAACACAGCGUGGCAAGGUGGCGGUGGCUAGACUGCC [G2A C10U A26G U32G] | 0.11 |
| GGCAGAGCUAAACACAGCCUGGCAAAGUGGCUAUGGAUAGACUGCC [C10A G19C G33A C37A] | 0.01 |
| GGCAGAGCUGAUCACAGCGUGGCAAAGUGGCUGUGGCUAGACCGCC [C10G A12U U43C] | 0 |
| GGCAGAGCUCAUCACAGCGUGUCAAAGUGGCUGUGCCUAGACUGCC [A12U G22U G36C] | 0.18 |
| GGCAGUCCUCAACACAGCAUGGCAAAGUGGCUGGGGCUAGACUGCC [A6U G7C G19A U34G] | 0.09 |
| GGCAGAGCUCAUCACAGCGUGGAGCUGUGGCCGUGGCUAGACUGCC [A12U C23A A24G A25C A26U U32C] | 0.02 |
| GGCAGAGUUCAACACAGCGUGGCAAAGUGACUGUCGCUAGACCGCC [C8U G30A G35C U43C] | 0.5 |
| GGCAAAGCUCAACACAGCGUGGCAAGGUGGCUGUGGCUAGACUUCC [G5A A26G G44U] | 0.13 |
| GGCAGGCCUCAACACAGCGUGGCAAAGUGGCUGUGGGUGGACUGCC [A6G G7C C37G A39G] | 0 |
| GGCAGAGCUCAACACAGCGUGUCAAAGGGACUGUGGCUACACUUCC [G22U U28G G30A G40C G44U] | 0.06 |
| GGAAGCGCUCAACAAAGCGUGGCAAAGUGUGUGUGGCUGGACUGCC [C3A A6C C15A G30U C31G A39G] | 0.15 |
| GGCAGCGCUCAACAUGGCGUCGCAAAGUGGCUGUGGCUAGUCUGCC [A6C C15U A16G G21C A41U] | 0.02 |
